# The list shows a part of the results.
# B1: E-Selectin (Homo sapiens), P16581 (protein)
# chain: MIASQFLSALTLVLLIKESGAWSYNTSTEAMTYDEASAYCQQRYTHLVAIQNKEEIEYLNSILSYSPSYYWIGIRKVNNVWVWVGTQKPLTEEAKNWAPGEPNNRQKDEDCVEIYIKREKDVGMWNDERCSKKKLALCYTAACTNTSCSGHGECVETINNYTCKCDPGFSGLKCEQIVNCTALESPEHGSLVCSHPLGNFSYNSSCSISCDRGYLPSSMETMQCMSSGEWSAPIPACNVVECDAVTNPANGFVECFQNPGSFPWNTTCTFDCEEGFELMGAQSLQCTSSGNWDNEKPTCKAVTCRAVRQPQNGSVRCSHSPAGEFTFKSSCNFTCEEGFMLQGPAQVECTTQGQWTQQIPVCEAFQCTALSNPERGYMNCLPSASGSFRYGSSCEFSCEQGFVLKGSKRLQCGPTGEWDNEKPTCEAVRCDAVHQPPKGLVRCAHSPIGEFTYKSSCAFSCEEGFELHGSTQLECTSQGQWTEEVPSCQVVKCSSLAVPGKINMSCSGEPVFGTVCKFACPEGWTLNGSAARTCGATGHWSGLLPTCEAPTESNIPLVAGLSAAGLSLLTLAPFLLWLRKCLRKAKKFVPASSCQSLESDGSYQKPSYIL
# Assays:
# Test in all cases: glycan array binding signal (z-score within array); higher = stronger binding
# Details in all cases: glycan notation: IUPAC condensed, linker removed
# [1] = target: Fuc(a1-2)Gal
# In short: (§1)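 Glycan array binding is given as a within-array Z-score, which can be read as non-binding when negative. The arrays, 3228 of them, came from the Consortium for Functional Glycomics database and were retained only where the protein sequence was available. Z-scores were averaged across arrays of the same protein sequence at different concentrations or buffers and across linkers.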
# [2] = target: Fuc(a1-2)Gal(b1-3)GalNAc
# In short: as §1
# [3] = target: Fuc(a1-2)Gal(b1-3)GalNAc(b1-3)Gal
# In short: as §1
# [4] = target: Fuc(a1-2)Gal(b1-3)GalNAc(b1-3)Gal(a1-4)Gal(b1-4)Glc
# In short: as §1
# [5] = target: Fuc(a1-2)Gal(b1-3)GalNAc(b1-4)[Neu5Ac(a2-3)]Gal(b1-4)Glc
# In short: as §1
# [6] = target: Fuc(a1-2)Gal(b1-3)GlcNAc
# In short: as §1
# [7] = target: Fuc(a1-2)Gal(b1-3)GlcNAc(b1-3)Gal(b1-4)Glc
# In short: as §1
# [8] = target: Fuc(a1-2)Gal(b1-3)[Fuc(a1-4)]GlcNAc
# In short: as §1
# [9] = target: Fuc(a1-2)Gal(b1-4)Glc
# In short: as §1
# [10] = target: Fuc(a1-2)Gal(b1-4)Glc6S
# In short: as §1
# [11] = target: Fuc(a1-2)Gal(b1-4)GlcNAc
# In short: as §1
# [12] = target: Fuc(a1-2)Gal(b1-4)GlcNAc(b1-3)Gal(b1-4)GlcNAc
# In short: as §1
# [13] = target: Fuc(a1-2)Gal(b1-4)GlcNAc(b1-3)Gal(b1-4)GlcNAc(b1-3)Gal(b1-4)GlcNAc
# In short: as §1
# [14] = target: Fuc(a1-2)Gal(b1-4)GlcNAc6S
# In short: as §1
# [15] = target: Fuc(a1-2)Gal(b1-4)[Fuc(a1-3)]GlcNAc
# In short: as §1
# [16] = target: Fuc(a1-2)Gal(b1-4)[Fuc(a1-3)]GlcNAc(b1-3)Gal(b1-4)[Fuc(a1-3)]GlcNAc
# In short: as §1
# [17] = target: Fuc(a1-2)Gal(b1-4)[Fuc(a1-3)]GlcNAc(b1-3)Gal(b1-4)[Fuc(a1-3)]GlcNAc(b1-3)Gal(b1-4)[Fuc(a1-3)]GlcNAc
# In short: as §1
# [18] = target: Fuc(a1-2)Gal6S(b1-4)Glc
# In short: as §1
# [19] = target: Fuc(a1-2)Gal6S(b1-4)Glc6S
# In short: as §1
# [20] = target: Fuc(a1-2)Gal6S(b1-4)GlcNAc
# In short: as §1
# [21] = target: Fuc(a1-2)GlcNAc
# In short: as §1
# [22] = target: Fuc(a1-2)[Gal(a1-3)]Gal
# In short: as §1
# [23] = target: Fuc(a1-2)[Gal(a1-3)]Gal(b1-3)GlcNAc
# In short: as §1
# [24] = target: Fuc(a1-2)[Gal(a1-3)]Gal(b1-4)Glc
# In short: as §1
# [25] = target: Fuc(a1-2)[Gal(a1-3)]Gal(b1-4)GlcNAc
# In short: as §1
# [26] = target: Fuc(a1-2)[Gal(a1-3)]Gal(b1-4)[Fuc(a1-3)]GlcNAc
# In short: as §1
# [27] = target: Fuc(a1-2)[Gal(a1-4)]Gal(b1-4)GlcNAc
# In short: as §1
# [28] = target: Fuc(a1-2)[GalNAc(a1-3)]Gal
# In short: as §1
# [29] = target: Fuc(a1-2)[GalNAc(a1-3)]Gal(b1-3)GlcNAc
# In short: as §1
# [30] = target: Fuc(a1-2)[GalNAc(a1-3)]Gal(b1-4)Glc
# In short: as §1
binder,measurement,setting,value
B1,glycan array binding signal (z-score),[1],-0.039
same,glycan array binding signal (z-score),[2],-0.163
same,glycan array binding signal (z-score),[3],-0.07
same,glycan array binding signal (z-score),[4],-0.204
same,glycan array binding signal (z-score),[5],-0.098
same,glycan array binding signal (z-score),[6],-0.238
same,glycan array binding signal (z-score),[7],-0.218
same,glycan array binding signal (z-score),[8],-0.254
same,glycan array binding signal (z-score),[9],-0.199
same,glycan array binding signal (z-score),[10],0.136
same,glycan array binding signal (z-score),[11],-0.111
same,glycan array binding signal (z-score),[12],-0.163
same,glycan array binding signal (z-score),[13],-0.045
same,glycan array binding signal (z-score),[14],0.202
same,glycan array binding signal (z-score),[15],-0.255
same,glycan array binding signal (z-score),[16],-0.198
same,glycan array binding signal (z-score),[17],-0.095
same,glycan array binding signal (z-score),[18],-0.005
same,glycan array binding signal (z-score),[19],0.543
same,glycan array binding signal (z-score),[20],-0.041
same,glycan array binding signal (z-score),[21],-0.117
same,glycan array binding signal (z-score),[22],-0.181
same,glycan array binding signal (z-score),[23],-0.227
same,glycan array binding signal (z-score),[24],-0.226
same,glycan array binding signal (z-score),[25],-0.135
same,glycan array binding signal (z-score),[26],-0.211
same,glycan array binding signal (z-score),[27],-0.065
same,glycan array binding signal (z-score),[28],-0.199
same,glycan array binding signal (z-score),[29],-0.247
same,glycan array binding signal (z-score),[30],-0.205

# — the supplement of paper PMC8728848
